# Measured values taken from PubChem BioAssay AID1159614 (National Center for Advancing Translational Sciences (NCATS), 2016).
# The campaign covered roughly 45,000 compounds. About 65 (0.1%) were called active. The call rests on the fitted dose curve; in most records, active means well fitted activation curve with a large enough effect; inconclusive means small, poorly fitted or top-dose-only effect; inactive means no such curve, though single readings can be large or run the other way. Some of the results follow.
# Molecular target: Galactocerebrosidase (Homo sapiens) (UniProt P54803)
# Assay: A Novel Cell-Based Assay to Identify Small Molecules for B -Galactocerebrosidase; further: 0% is about no effect; nearly all actives have a fitted effect of over 65% in size
# Conditions: 145M-Twi-hGALC-G270D cells (Twitcher mouse brain line with human GALC G270D), HMU-beta-Gal fluorescence, 48 h; series mostly up to 57.5 µM; activation: at the top concentration
# How it was run: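 Fluorogenic HMU-b-Gal hydrolysis (0.1 mM final, pH 5.2 citrate-phosphate with 1 mg/mL sodium taurocholate; carbonate stop buffer) measures mutant GALC activity after compound treatment of live 145M-Twi Twitcher brain cells stably carrying human GALC-G270D, with wild-type GALC line alongside; activation sought.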
# Sequence of UniProt P54803 (P54803 whole entry, looked up): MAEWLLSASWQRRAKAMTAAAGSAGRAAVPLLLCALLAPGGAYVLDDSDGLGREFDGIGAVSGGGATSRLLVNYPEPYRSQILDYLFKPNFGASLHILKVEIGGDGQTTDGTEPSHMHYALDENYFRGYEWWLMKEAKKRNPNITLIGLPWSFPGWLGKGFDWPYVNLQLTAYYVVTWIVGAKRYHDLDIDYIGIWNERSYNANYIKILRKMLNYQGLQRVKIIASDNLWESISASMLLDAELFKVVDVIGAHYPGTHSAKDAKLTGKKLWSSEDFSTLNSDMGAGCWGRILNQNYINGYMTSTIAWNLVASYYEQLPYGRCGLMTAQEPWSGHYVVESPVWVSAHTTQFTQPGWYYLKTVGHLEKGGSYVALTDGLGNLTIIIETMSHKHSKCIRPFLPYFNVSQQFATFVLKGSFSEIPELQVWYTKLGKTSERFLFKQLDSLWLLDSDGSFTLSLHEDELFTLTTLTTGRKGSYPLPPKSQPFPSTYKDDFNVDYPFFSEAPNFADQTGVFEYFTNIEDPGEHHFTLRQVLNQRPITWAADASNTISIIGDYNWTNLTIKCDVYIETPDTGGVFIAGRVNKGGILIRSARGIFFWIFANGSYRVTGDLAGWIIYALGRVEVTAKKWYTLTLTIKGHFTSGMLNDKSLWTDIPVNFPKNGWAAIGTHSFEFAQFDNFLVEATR
row,Compound,activation
1,COc1cccc(N2CC(NC(=O)c3ccc(S(=O)(=O)N4CCOCC4)cc3)CC2=O)c1 (stereo not given),inactive: -13.2%
2,O=C(Nc1ccc(F)cc1)c1csc2c1CCCCC2,inactive: 1.56%
3,C/C=C1\[C@H]2C=C(C)C[C@]1(N)c1ccc(=O)[nH]c1C2,inactive: -12.5%
4,O=C(CS)Nc1ccccc1,inactive: 13.1%
5,O=C(NCCc1ccccc1)c1nc(-c2ccc(Cl)cc2)n2c1CCCCC2,inactive: -13.5%
6,CCc1ccc(CNC(=O)c2c(C)oc3ncnc(N4CCOCC4)c23)cc1,inactive: -7.69%
7,COc1cc2ccccc2cc1C(=O)Nc1ccc2oc(-c3ccc(F)cc3Cl)nc2c1,inactive: -34.3%
8,COc1cccc(C(=O)Nc2c(C(=O)N3CCN(c4ccc(F)cc4)CC3)oc3ccccc23)c1,inactive: -0.575%
9,CN(C)CCCN1c2ccccc2CCc2ccccc21,inactive: -15.2%
10,CCOc1ccc(C(=O)c2oc3ccccc3c2NC(=O)Cc2coc3ccc(CC)cc23)cc1,inactive: -16.8%
11,Cc1cccc(NC(=O)N2CCC3(CC2)Oc2ccccc2C(=O)N3Cc2ccccc2F)c1C,inactive: -8.93%
12,O=C(Cc1ccc(F)cc1)Nc1nnc2n1CCS2,inactive: -16.4%
13,COc1ccccc1NC(=O)CSc1nc(-c2ccc(C(C)(C)C)cc2)c(C#N)c(=O)[nH]1,inactive: -7.15%
14,Cc1cccc(N2CCN(CCNC(=O)Nc3ccc(Cl)cc3)CC2)c1C,inactive: -26%
15,O=C(NCCn1ccc2ccccc21)c1ccc(Cl)cc1,inactive: -6.61%
16,CCc1ccccc1OCC(=O)Nc1ccc(S(=O)(=O)Nc2nc(C)cc(C)n2)cc1,inactive: -13%
17,CCOc1ccccc1-n1nnc(-c2nsc(NC(=O)c3ccc(C)cc3)n2)c1C,inactive: -8.73%
18,CCc1cccc(-n2c(=O)c3cccnc3n2CC(=O)Nc2ccc(F)c(C)c2)c1,inactive: -21.2%
19,CC(C)c1ccc(Nc2cc(C(=O)NC3CCCCC3)c3ccccc3n2)cc1,inactive: -19.6%
20,CCc1ccc2occ(CC(=O)Nc3ccccc3C(F)(F)F)c2c1,inactive: -14.4%
21,CSc1cccc(Nc2cc(C(=O)NCCCN(C)c3ccccc3)c3ccccc3n2)c1,inactive: -29.9%
22,CCOC(=O)c1c(-c2ccc(C)cc2)csc1NC(=O)c1cc(=O)c2ccc(C)cc2o1,inactive: -5.61%
23,COc1ccc(/C=C/C(=O)Nc2nc3n(n2)C(c2ccc(F)cc2)C=C(c2ccccc2)N3)cc1 (stereo not given),inactive: -2.66%
24,COc1ccc(NC(=O)Cn2c(=O)n(Cc3nc(-c4ccccc4)no3)c(=O)c3ccccc32)cc1Cl,inactive: -27.8%
25,CCCCCCCCCCC(CO)CCCCCCCC (stereo not given),inactive: -14.8%

row,Compound,activation
1,CC(=O)N1CCc2cc(S(=O)(=O)NC(C(=O)Nc3ccc(C)cc3C)C(C)C)ccc21 (stereo not given),inactive: 1.88%
2,COc1ccc(NC(=O)C2CCCN(S(=O)(=O)c3ccc(Br)s3)C2)cc1 (stereo not given),inactive: -5.12%
3,COc1cc(C(=O)n2nc(C)c(Sc3ccc(Cl)cc3)c2C)cc(OC)c1OC,inactive: -23.1%
4,CC(C)c1ccc(NC(=O)CN2C(=O)COc3ccc(S(=O)(=O)N4CCCCCC4)cc32)cc1,inactive: -12.5%
5,CCc1ccc(NC(=O)Cn2c(=O)n(Cc3ccco3)c(=O)c3oc4ccccc4c32)cc1,inactive: -17.1%
6,O=C(NCc1cccs1)c1ccc(CSc2nc3cccnc3n2Cc2ccccc2F)cc1,inactive: -1.02%
7,CCOC(=O)c1c(NC(=O)c2cc(-c3cccc(OC)c3)on2)sc2c1CCCC2,inactive: -21.6%
8,COc1ccc(CC(=O)NCC(c2cccs2)S(=O)(=O)c2ccc(C)cc2)cc1 (stereo not given),inactive: 8.38%
9,COc1cccc(CNC(=O)Cc2c(C(=O)O)c(C)cn2C)c1,inactive: -5.18%
10,CCN(CC)C(=O)c1ccc(Nc2nnc(-c3ccc(C)c(S(=O)(=O)NC)c3)c3ccccc23)cc1,inactive: -9.38%
11,CCc1cccc(N2C(=O)CSC23C(=O)Nc2ccccc23)c1 (stereo not given),inactive: -11.7%
12,COc1ccc(S(=O)(=O)Nc2c(C)nc3nc(C)[nH]n3c2=O)cc1,inactive: 2.11%
13,Cc1cc(C)c(NC(=O)Cn2cnc3c(oc4ccccc43)c2=O)c(C)c1,inactive: -11.3%
14,Cc1oc(-c2ccccc2Cl)nc1CSc1nc2ncccc2[nH]1,inactive: -5.42%
15,CCOC(=O)c1c(C)n(-c2ccccc2)c2ccc(OC(=O)c3cccc(OC)c3OC)cc12,inactive: -12.4%
16,COc1ccccc1N1CCN(c2ncnc3onc(-c4cccc(Cl)c4)c23)CC1,inactive: -9.65%
17,O=C(NCc1cccc(Cl)c1)c1ccc2nc(N3CCCCC3)sc2c1,inactive: -1.08%
18,CC1CCN(C(=O)c2cc(-c3ccc(Br)cc3)on2)CC1,inactive: -43.5%
19,CCc1nnc2c(N3CCN(c4cc(Cl)ccc4C)CC3)nc3ccccc3n12,inactive: -17.9%
20,CCOC(=O)C1CCCN(C(=O)c2nn(-c3ccc(C)cc3)c(=O)n(C)c2=O)C1 (stereo not given),inactive: -17.3%
21,CCOc1ccc(CNS(=O)(=O)c2ccc3c(c2)CCCN3C(C)=O)cc1OC,inactive: -16.2%
22,CCCN(C(=O)c1cc2c(=O)[nH]c3ccc(C)cc3c2s1)c1ccc(CC)cc1,inactive: -16.1%
23,O=C(COc1ccc(F)cc1)Nc1ccc2nc(SCC(=O)N3CCOCC3)sc2c1,inactive: -1.32%
24,COc1ccc(-c2noc(COc3cc(C)ccc3C)n2)cc1OC,inactive: -3.99%
25,O=C1[C@@H]2CSC(c3ccc(Cl)cc3)N2C(=O)N1c1ccccc1 (stereo not given in full),inactive: 0.282%
